Compound in assay [1]: NC(=O)c1ncn([C@@H]2O[C@H](CO)[C@@H](O)[C@H]2O)c1N [AICAR]
Put plainly: Viability of human cancer cell lines after 72 h of drug (GDSC screen). To be noted: top dose 2000 µM; top dose inferred. As to the method: (§1)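 Human cancer cell lines in 384-well plates, medium with 10% serum, drug for 72 h over a 256-fold dose range (nine 2-fold or five 4-fold steps up to the top dose). Adherent lines were fixed and stained with the nucleic acid dye Syto60, suspension lines read with resazurin; signal relative to control wells, capped at 0 and 100%. One two-parameter sigmoid per drug and line, fitted in a mixed model over all curves with the slope shared within a line.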

Compound in assay [2]: O=c1[nH]c2ccccc2n1C1CCN(Cc2ccc(-c3[nH]c4cc5ncnc5cc4nc3-c3ccccc3)cc2)CC1 [AKT inhibitor VIII]
Described as above. The note with it: top dose inferred. As for the experimental part:
as §1

Where [3] appears, read: top dose 2.56 µM, screen: GDSC drug entry 171.
Where [4] appears, read: top dose 10.24 µM, screen: GDSC drug entry 228.

The IC50 is the point on the concentration scale where inhibition reaches its midpoint.

A lower IC50 marks a more sensitive line; where the fit passes the top or lowest dose, that dose stands as a limit. AUC sums up the same curve from the lowest dose to the 256-fold higher top dose: 1 means no effect, lower means more sensitive. Where the top dose is marked as inferred, it was derived from the fitted curves, not read from the paper. For some of these results: Where an entry number is given, a second screen of the drug exists; the two often differ.

As to T98G (glioma, adherent), the results for the AUC in assay [1], in assay [2] (setting [3]) and in assay [2] (setting [4]) were 0.926, 0.97 and 0.972, respectively. In addition, the IC50 was more than 2000 µM in assay [1], more than 2.56 µM in assay [2] (setting [3]) and more than 10.2 µM in assay [2] (setting [4]).

Regarding T-T (oesophagus, adherent), the AUC amounted to 0.697 in assay [1], 0.886 in assay [2] (setting [3]) and 0.951 in assay [2] (setting [4]). Besides, the IC50 in assay [1] is 445 µM; in assay [2] (setting [3]), more than 2.56 µM; in assay [2] (setting [4]), more than 10.2 µM.

As to TE-1 (oesophagus, adherent), the AUC is 0.388 in assay [1], 0.957 in assay [2] (setting [3]) and 0.903 in assay [2] (setting [4]). Further, the IC50 in assay [1] is 56.6 µM; in assay [2] (setting [3]) it was more than 2.56 µM; in assay [2] (setting [4]), more than 10.2 µM.

For TE-4 (oesophagus, adherent), in assay [1], the AUC was 0.9 and the concentration for half-maximal inhibition (IC50) is more than 2000 µM. In addition, in assay [2] (setting [4]), the AUC came to 0.904 and the concentration for half-maximal inhibition (IC50) is more than 10.2 µM.

In the case of TE-5 (oesophagus, adherent), the AUC was 0.937 in assay [1], 0.883 in assay [2] (setting [3]) and 0.893 in assay [2] (setting [4]). Besides, the IC50 was more than 2000 µM in assay [1], more than 2.56 µM in assay [2] (setting [3]) and more than 10.2 µM in assay [2] (setting [4]).

For the cell line TE-6 (oesophagus, adherent), the AUC came to 0.941 in assay [1], 0.976 in assay [2] (setting [3]) and 0.849 in assay [2] (setting [4]). For the same cell line, the IC50 is more than 2000 µM in assay [1], more than 2.56 µM in assay [2] (setting [3]) and 9.73 µM in assay [2] (setting [4]).

In the case of TE-8 (oesophagus, adherent), the AUC came to 0.79 in assay [1], 0.915 in assay [2] (setting [3]) and 0.913 in assay [2] (setting [4]). The IC50 is 961 µM in assay [1], more than 2.56 µM in assay [2] (setting [3]) and more than 10.2 µM in assay [2] (setting [4]).

As to TE-9 (oesophagus, adherent), the AUC in assay [1] amounted to 0.91; in assay [2] (setting [3]), 0.97; in assay [2] (setting [4]), 0.966. Besides, the IC50 in assay [1] is more than 2000 µM; in assay [2] (setting [3]), more than 2.56 µM; in assay [2] (setting [4]) it was more than 10.2 µM.

As to TE-11 (oesophagus, adherent), the values for the AUC in assay [1], in assay [2] (setting [3]) and in assay [2] (setting [4]) were 0.416, 0.969 and 0.961, respectively. The 50% inhibitory concentration (IC50) is 75.2 µM in assay [1], more than 2.56 µM in assay [2] (setting [3]) and more than 10.2 µM in assay [2] (setting [4]).

With TE-12 (oesophagus, suspension), the values for the AUC in assay [1], in assay [2] (setting [3]) and in assay [2] (setting [4]) were 0.655, 0.966 and 0.737, respectively. The concentration for half-maximal inhibition (IC50) in assay [1] was 372 µM; in assay [2] (setting [3]), more than 2.56 µM; in assay [2] (setting [4]) it was 3.59 µM.

For TE-15 (oesophagus, suspension), the AUC in assay [1] amounted to 0.814; in assay [2] (setting [3]), 0.91; in assay [2] (setting [4]), 0.837. Further, the figures for the concentration for half-maximal inhibition (IC50) in assay [1], in assay [2] (setting [3]) and in assay [2] (setting [4]) were 1270 µM, more than 2.56 µM and 8.14 µM, respectively.

Regarding TGBC1TKB (biliary tract, adherent), the AUC is 0.783 in assay [1], 0.985 in assay [2] (setting [3]) and 0.979 in assay [2] (setting [4]). The figures for the IC50 in assay [1], in assay [2] (setting [3]) and in assay [2] (setting [4]) were 837 µM, more than 2.56 µM and more than 10.2 µM, respectively.

With TGBC11TKB (stomach, adherent), the AUC in assay [1] came to 0.923; in assay [2] (setting [3]), 0.991; in assay [2] (setting [4]), 0.946. Further, the IC50 was more than 2000 µM in assay [1], more than 2.56 µM in assay [2] (setting [3]) and more than 10.2 µM in assay [2] (setting [4]).

In the case of TGW (neuroblastoma, adherent), the AUC in assay [1] was determined as 0.719; in assay [2] (setting [3]) it was 0.991; in assay [2] (setting [4]), 0.877. For the same cell line, the half-inhibitory concentration (IC50) in assay [1] was 470 µM; in assay [2] (setting [3]), more than 2.56 µM; in assay [2] (setting [4]), 7.79 µM.

With “THP-1 (acute myeloid leukaemia, suspension)”, the AUC in assay [1] amounted to 0.911; in assay [2] (setting [3]) it was 0.99; in assay [2] (setting [4]), 0.681. The IC50 was more than 2000 µM in assay [1], more than 2.56 µM in assay [2] (setting [3]) and 1.93 µM in assay [2] (setting [4]).

For the cell line TK10 (kidney, adherent), the AUC in assay [1] was found to be 0.946; in assay [2] (setting [3]) it was 0.968; in assay [2] (setting [4]), 0.879. Moreover, the 50% inhibitory concentration (IC50) is more than 2000 µM in assay [1], more than 2.56 µM in assay [2] (setting [3]) and more than 10.2 µM in assay [2] (setting [4]).

Regarding TK (B-cell lymphoma, suspension), the AUC stood at 0.711 in assay [1], 0.953 in assay [2] (setting [3]) and 0.753 in assay [2] (setting [4]). In addition, the IC50 in assay [1] was 464 µM; in assay [2] (setting [3]), more than 2.56 µM; in assay [2] (setting [4]), 3.15 µM.

Take TMK-1 (stomach, adherent): the AUC turned out to be 0.799 in assay [1], 0.899 in assay [2] (setting [3]) and 0.969 in assay [2] (setting [4]). Also, the figures for the IC50 in assay [1], in assay [2] (setting [3]) and in assay [2] (setting [4]) were 1020 µM, more than 2.56 µM and more than 10.2 µM, respectively.

With TOV-21G (ovary, adherent), the values for the AUC in assay [1], in assay [2] (setting [3]) and in assay [2] (setting [4]) were 0.845, 0.984 and 0.824, respectively. In addition, the half-maximal inhibitory concentration (IC50) in assay [1] was 1640 µM; in assay [2] (setting [3]), more than 2.56 µM; in assay [2] (setting [4]), 6.81 µM.

Source of the values: the supplement of paper PMC4967469.
